Test results from the supplement of paper PMC3334620.
Whole data set: some 33,000 sequences, median “E-score (-0.5 to 0.5)” near -0.01, cut for the highest 2% near 0.26. The list shows a part of the results.

molecular target: Ste12 (UniProt P13574); assay: PBM E-score (8-mer binding enrichment) (E-score (-0.5 to 0.5)); higher = stronger / more preferred TF binding; most listed sequences are background and not binding sites; conditions: protein concentration: 200 nM; construct: GST-DNA-binding domain
Method in brief: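 Universal all-10-mer Agilent arrays, double-stranded by primer extension on fresh or once-stripped slides, were probed with about 100-200 nM GST-tagged yeast transcription factors made by PURExpress. Fluorescent anti-GST detected bound protein, and masliner normalised the scans. E-scores from the Universal PBM Analysis Suite were given to each ungapped eight-base word pooled with its reverse complement.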

Sequence	PBM E-score
AATCCTCG	-0.062
AGTGTCTC	-0.0319
CCGTTTAA	0.135
ACCAGTTA	0.0659
CGCTGTCA	-0.0431
CCCGGATC	-0.0487
TGCACAAA	0.115
AGCCATAC	-0.0754
CTCTTTTA	0.0019
AAAGATCC	-0.0171
AGGTTCCG	0.0466
CAGGGTCG	-0.0799
ATGGTAAA	0.139
CGGAATAA	0.0438
AAGATCGT	-0.0522
CTTTTTAC	0.25
AGTTCTTG	-0.0124
CACTGCAC	-0.14
TACTGGAA	0.182
ATGGATGC	-0.0947
CAGTACTG	-0.0408
ATTAACCG	0.111
GACTCTAC	-0.174
AAAATACG	0.154
CAATTTCA	-0.0398

Sequence	PBM E-score
CGGTCTAG	0.0867
GGAGGGCA	0.0377
CAATCGTA	0.039
CACAGCGC	0.0031
GTCCTAAC	-0.0583
CGCCGCCG	-0.0563
ATCCAAAG	0.14
AAGGGGGG	-0.261
ACTAGGGC	-0.163
CAGCACAC	-0.16
ACAACAAG	0.0013
GGACCCTA	-0.301
GCTGCGGA	0.0307
GTGTATCA	0.301
CCCCAACG	-0.0961
CGAGTAAC	0.0756
ACGTGCAT	-0.203
CTAGCACA	-0.22
TTCGACAA	-0.0424
ACTTCCCC	-0.117
ACTCGTCA	0.0406
CTTAGGGA	-0.316
AGTGTCAG	0.0128
ACTCCATC	-0.107
AAGTTAGG	-0.0455

Sequence	PBM E-score
CACGGGCA	-0.157
GGTTATCA	0.00703
CTTCTGGC	0.0295
AACTTTGT	0.0244
ATTCCCCA	-0.0812
CAGTAACC	0.0714
CTCATGCC	-0.209
ACGACGGG	-0.095
CTTTTGTA	0.149
AGCGAGAC	-0.0839
CCTAGTAC	-0.25
CTGCACCA	-0.0106
CCAGGCAA	0.0679
GTGGTGAA	0.0592
TGCAACCA	0.193
CCTGGACA	-0.177
CGCCATGC	-0.132
ATATAATA	0.201
GGGTAACA	-0.0668
CACGCGTC	0.174
CGCCGTGA	0.0593
CACGGGGC	-0.0164
AGAGGTCA	-0.0617
CATTCACG	-0.0119
GGTGTGGA	0.114

Sequence	PBM E-score
GGACCTAA	0.145
CGTGGAAG	0.0472
CGCCTTAA	0.153
GGGGGACA	0.0383
AGACCCTC	-0.232
CCCTTAAC	-0.0198
ATCACTTC	0.0214
ACTACCTA	-0.242
CGACGAAG	-0.03
CTATAGAC	-0.217
GTGTAGAA	-0.0218
AGCTTGGG	-0.0284
GGTTTGCA	0.093
CCCTAGCA	-0.0486
GCTCTGCC	-0.208
CCAGAACC	0.00617
CCAAAGCA	0.0448
AATTACCC	0.0106
AACCATTG	-0.131
ATCCTTGC	-0.238
CAGAATGA	0.0622
GAAATGAA	0.331
CATTGCGA	0.169
AGTTCCTG	-0.263
CGTTCAAA	0.0556

Sequence	PBM E-score
CCTCTTAC	-0.166
TGGCTCAA	0.00506
AATCTGAT	-0.0901
AGCAAACA	0.0976
CAGCGTCA	-0.184
CCAGGTCA	-0.127
GGGTTAAC	-0.0583
CATTGAGA	0.0251
GGATTCCC	-0.294
CGACTCGA	-0.0782
AAATGAAA	0.426
AGGCTTAA	-0.171
CGTCGGAA	0.072
GAGATGGA	-0.167
ACGAGGGA	0.0634
CGCAAAGC	-0.0999
CTCCGAAA	0.00449
CCACTTGC	-0.164
ACCCATCT	-0.019
CAAGAACA	-0.0156
ATCTCCGC	0.0598
GGTATGTA	0.0738
GCGCTCGA	-0.00155
TAATTCTA	0.267
CTCCTGGA	-0.166

Sequence	PBM E-score
GCCGGACA	0.109
ACGTCGGG	-0.221
CCGCGTTA	0.0312
ATCCAGTG	-0.0497
AGTTTAAG	-0.0301
CTGAGACA	0.224
TTAAGCAA	0.171
GATTAGGA	-0.0025
CTCAGGAA	-0.141
ATGTTATA	0.0142
ATAGGCAA	-0.16
ACTCGCTC	0.0471
AGGAACCT	-0.00887
CTAGATGC	-0.135
AGGATTCC	-0.256
GGCCGCCA	-0.14
CCATCTCC	-0.0357
AGCTCTTA	-0.142
GACTGTGA	0.0814
AGCCCATA	-0.121
CCCATCGC	-0.126
GTTTCTTA	0.255
CGTGACCC	-0.0971
AGTGGCCG	-0.22
GGCTGAAA	0.27

Sequence	PBM E-score
CTCTCGCC	-0.096
AGATCGAA	0.108
GAATTACA	0.14
GCGGGAAA	0.121
ATGTCGGA	0.0594
CGTATTAG	0.193
TCTAGAGA	-0.212
CCATAATA	0.121
CCCTGAGG	-0.213
CAGTGATC	0.0344
AAAAGGTT	-0.0206
ATTCATCC	0.00901
AGATAGTC	-0.253
CCGTTGCG	-0.0934
CACACGTA	-0.192
GAGTGTGA	0.0238
CGGCCAAC	-0.01
ATCCCTAA	-0.282
GCAGCGGC	-0.114
AAAGCCGC	0.00426
CGGAGGGA	-0.214
GAGAAACA	0.179
